Out of some 340,000 compounds screened, about 12,000 (3.5%) were called active. Inconclusive results, whose numbers are uncertain, are shown with a selection of clear calls. The call rests on the fitted dose curve; in most records, active means well fitted inhibition curve with a large enough effect; inconclusive means small, poorly fitted or top-dose-only effect, or another doubt; inactive means no such curve, though single readings can be large or run the other way. No potency is given beside an inconclusive call; the fits are too rough.
Experiment: qHTS Assay for Inhibitors of Hepatitis C Virus (HCV)
Settings: Huh7.5.1 HCVcc-Cre (HCVcc is cell-culture hepatitis C virus) infection, luciferase reporter, 44 h; activity change, negative = inhibition: at 41.8 µM (top of the series)
Method in brief: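 Antiviral activity was scored by luciferase reporter output from cells infected with HCVcc-Cre (~0.5 moi) in presence of compound, 44 h infection period, cells seeded 1,000/well 4 h prior.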
In the case of `CN1CCN(c2nnc(-c3ccc(Cl)cc3)c3ccccc23)CC1`, the Potency is reported as inconclusive [inhibitor, single point]. In the case of `COc1ccc(NS(=O)(=O)c2cc(NC(=O)c3cnccn3)ccc2OC)cc1Br`, the Potency is reported as inconclusive [inhibitor, single point]. For `CC(=O)C(C(C)=O)c1c(Cl)c(O)c(O)c2c(C(=O)c3ccccc3)coc12`, the Potency was active: 10 µM. For `COc1ccccc1NC(=O)COC(=O)c1c[nH]c2ccccc12`, the Potency was inconclusive [inhibitor, partial curve]. For `O=c1oc2cc(OCc3c(F)c(F)c(F)c(F)c3F)ccc2cc1-c1ccccn1`, the Potency was inconclusive [inhibitor, single point]. With `O=C(COc1coc(CN2CCN(c3ccc(F)cc3)CC2)cc1=O)Nc1ccccc1` the Potency was inconclusive [inhibitor, single point]. With `Cc1ccc(-c2n[nH]c(Cc3ccccc3)n2)cc1` the Potency was inconclusive [inhibitor, single point]. For `CCCCCn1c(=O)c(C(=O)NCc2ccccc2)c(O)c2ccccc21`, the Potency was inconclusive [inhibitor, partial curve]. With `COC(=O)C(N)Cc1ccc(O)cc1` (stereo not given) the “activity change, negative = inhibition” value was inactive: 14.8%. In the case of `O=C(O)C1C2C=CC(C2)C1C(=O)Nc1ccc2c(c1)OCCO2` (stereo not given), the “activity change, negative = inhibition” value is reported as inactive: 14.5%. With `COCCCNC(=O)C[C@H]1C[C@H](C(=O)N2CCOCC2)[C@@]2(CCC3CCCC3)c3[nH]c4cc(-c5ccco5)ccc4c3CCN2C1=O` the “activity change, negative = inhibition” value was inactive: -7.67%. In the case of `Cn1c(SCC(=O)Nc2cccnc2Cl)nc2ccccc21`, the “activity change, negative = inhibition” value is reported as inactive: 2.04%. With `COC(=O)c1ccc2c(=O)n(CCCN3CCCC3=O)c(=S)[nH]c2c1` the Potency was inconclusive [inhibitor, full curve, poor fit]. In the case of `CS(=O)(=O)N1CCC(C(=O)NCCC2=CCCCC2)CC1`, the Potency is reported as inconclusive [inhibitor, single point]. With `CCC(C)(C(=O)NC1CCCCC1)N(Cc1cccs1)C(=O)Cc1cccs1` (stereo not given) the Potency was inconclusive [inhibitor, partial curve]. With `O=C(NNc1ccccc1C(F)(F)F)c1sccc1Br` the “activity change, negative = inhibition” value was inactive: -12.1%. In the case of `CCc1nnc(NS(=O)(=O)c2ccc(N/C=C\C(=O)c3ccc4ccccc4c3)cc2)s1`, the “activity change, negative = inhibition” value is reported as inactive: 9.49%. In the case of `Cc1c(C(=O)Nc2ccc3c(c2)OCO3)oc2ccccc12`, the Potency is reported as inconclusive [inhibitor, single point]. In the case of `C=CCn1c(O)c(N=NC(=O)CNC(=O)c2cccs2)c2ccccc21`, the Potency is reported as inconclusive [inhibitor, single point]. With `CCCC(=O)Nc1nnc(SCC(=O)Nc2nc(C)cs2)s1` the Potency was inconclusive [inhibitor, full curve]. For `Cc1ccc(S(=O)(=O)N2CC3(C)CN(S(=O)(=O)c4ccc(C)cc4)CC(C)(C2)C3=O)cc1`, the Potency was inconclusive [inhibitor, single point]. In the case of `O=C(Nc1ccc(Br)cn1)c1cccc(C(=O)Nc2ccc(Br)cn2)c1`, the “activity change, negative = inhibition” value is reported as inactive: 7.7%. With `O=C(NC(=S)Nc1nc(-c2cccc3ccccc23)cs1)c1cc2ccccc2o1` the “activity change, negative = inhibition” value was inactive: -14.9%. With `Cc1ccc(-c2cc(C(=O)Nc3ccccc3C(N)=O)c3ccccc3n2)o1` the Potency was inconclusive [inhibitor, partial curve, poor fit]. For `COc1ccc([N+](=O)[O-])cc1NC(=S)NC(NC(=O)Cc1ccc(OC)c(OC)c1)C(Cl)(Cl)Cl` (stereo not given), the Potency was active: 7.94 µM. With `CCOc1ccc(CC(=O)N2CCN=C2SCc2ccc([N+](=O)[O-])cc2)cc1` the “activity change, negative = inhibition” value was inactive: -4.36%. For `COc1ccc(CNC(=O)c2ccccc2NC(=O)C2=CSCCO2)c(OC)c1`, the Potency was inconclusive [inhibitor, single point]. With `COc1cc(CCC(=O)NCC2CCCO2)cc(OC)c1OC` (stereo not given) the “activity change, negative = inhibition” value was inactive: 1.28%. For `COc1ccc(CN2CCC(Oc3cc(C(=O)NC4CC4)ccc3OC)CC2)c(O)c1`, the Potency was inconclusive [inhibitor, single point]. For `c1ccc(-c2ccc(-c3nc(-c4cccnc4)no3)cc2)cc1`, the Potency was inconclusive [inhibitor, partial curve, poor fit]. With `CCCCN1C(=O)C2(NNc3ccccc3O2)c2ccccc21` (stereo not given) the Potency was inconclusive [inhibitor, partial curve, poor fit]. For `COc1cccc2cc(C(=O)Nc3ccc(S(=O)(=O)NCC4CCCO4)cc3)c(=O)oc12` (stereo not given), the “activity change, negative = inhibition” value was inactive: 35.3%. For `CCCCN(C(=O)C(C)Oc1ccc(Br)cc1)c1c(N)n(Cc2ccccc2)c(=O)[nH]c1=O` (stereo not given), the Potency was inconclusive [inhibitor, single point]. With `Cc1cc(C(=O)COc2cccnc2[N+](=O)[O-])c(C)n1Cc1ccco1` the Potency was inconclusive [inhibitor, single point]. For `COc1ccc(CNC(=O)C[C@H]2C(=O)N(CCc3ccccc3)C[C@@H]2Cc2ccccc2)cc1`, the “activity change, negative = inhibition” value was inactive: -23.2%. For `CCc1ccc(NC(=O)Nc2cccc(OC)c2)cc1`, the Potency was inconclusive [inhibitor, single point]. In the case of `O=C(COC(=O)CCc1ccc(S(=O)(=O)N2CCCCC2)cc1)Nc1cccc2ccccc12`, the “activity change, negative = inhibition” value is reported as inactive: 15%. In the case of `CC(=O)N1CC(c2ccccc2)C(c2ccc(Cl)cc2)=N1` (stereo not given), the Potency is reported as inconclusive [inhibitor, single point]. With `NC(=O)Cc1ccc(Nc2nnc(-c3ccc(O)cc3)c3ccccc23)cc1` the “activity change, negative = inhibition” value was inactive: -9.03%. For `COCCN(C(=O)CCC(=O)Nc1cc(C)on1)C(C(=O)NC(C)(C)C)c1ccccc1Cl` (stereo not given), the “activity change, negative = inhibition” value was inactive: 21.4%. For `COc1ccc(N2C(=O)CSC23C(=O)Nc2ccccc23)cc1OC` (stereo not given), the “activity change, negative = inhibition” value was inactive: 20%. For `COc1cccc(-n2nc(-c3ccnn3-c3ccccc3)c(=O)n(C)c2=O)c1`, the Potency was inconclusive [inhibitor, single point]. With `CC(C)Cc1ccc(C(C)/C=C2/CCC(CN3CCCCC3)C2=O)cc1` (stereo not given) the Potency was inconclusive [inhibitor, single point]. For `O=C1C(Cl)=C(NCCCN2CCOCC2)C(=O)c2ccccc21`, the Potency was active: 10 µM. In the case of `CC1CC1c1ccc(/C=C(\C#N)C(=O)Nc2ccc(Cl)cc2)o1` (stereo not given), the Potency is reported as inconclusive [inhibitor, full curve].

Source: PubChem BioAssay AID651820 (National Center for Advancing Translational Sciences (NCATS), 2012)
On the % scale 0 is the no-effect control and ±100 the full control effect; potency means the concentration at half of the fitted maximal effect; tags describe the fitted curve by direction and shape.
